# In the supplement of paper PMC3334620:
# Over roughly 33,000 sequences, “E-score (-0.5 to 0.5)” has its median near -0.043; the highest 2% begin near 0.37. Some of the results follow.
# Molecular target: T1, Upc2 (UniProt Q12151)
# T1 sequence: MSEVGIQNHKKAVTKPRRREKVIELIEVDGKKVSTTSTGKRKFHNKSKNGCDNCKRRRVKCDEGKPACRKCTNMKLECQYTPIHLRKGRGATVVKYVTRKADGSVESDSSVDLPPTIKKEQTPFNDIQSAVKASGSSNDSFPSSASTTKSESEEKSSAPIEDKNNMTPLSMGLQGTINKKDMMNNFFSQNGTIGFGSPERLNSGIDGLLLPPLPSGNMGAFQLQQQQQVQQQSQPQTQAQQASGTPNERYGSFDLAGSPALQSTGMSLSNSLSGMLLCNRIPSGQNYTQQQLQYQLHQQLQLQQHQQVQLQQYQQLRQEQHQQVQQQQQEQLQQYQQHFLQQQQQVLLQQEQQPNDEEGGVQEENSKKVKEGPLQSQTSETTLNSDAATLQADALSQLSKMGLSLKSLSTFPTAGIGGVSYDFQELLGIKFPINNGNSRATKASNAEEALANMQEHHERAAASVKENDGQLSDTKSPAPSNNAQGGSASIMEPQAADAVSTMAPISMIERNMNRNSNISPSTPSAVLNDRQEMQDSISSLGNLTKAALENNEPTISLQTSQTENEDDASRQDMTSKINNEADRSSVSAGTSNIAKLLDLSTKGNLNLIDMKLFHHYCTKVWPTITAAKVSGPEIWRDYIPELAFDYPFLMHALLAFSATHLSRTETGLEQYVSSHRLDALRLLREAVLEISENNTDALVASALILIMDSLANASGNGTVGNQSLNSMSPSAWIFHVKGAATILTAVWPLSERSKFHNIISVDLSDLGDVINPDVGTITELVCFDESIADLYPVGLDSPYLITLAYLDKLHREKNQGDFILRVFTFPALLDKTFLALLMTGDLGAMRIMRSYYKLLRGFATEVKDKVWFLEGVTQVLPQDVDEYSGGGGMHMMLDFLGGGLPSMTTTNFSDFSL
# Assay: PBM E-score (8-mer binding enrichment) (E-score (-0.5 to 0.5)); higher = stronger / more preferred TF binding; most listed sequences are background and not binding sites
# Conditions: protein concentration: 200 nM; construct: GST-full length
# In short: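 Using PURExpress in vitro transcription/translation, GST-tagged yeast transcription factors were made in full-length or DNA-binding-domain form. These were applied at about 100-200 nM to double-stranded universal all-10-mer Agilent arrays, and bound protein was detected with fluorescent anti-GST. Scans were normalised with masliner before the Universal PBM Analysis Suite assigned E-scores to ungapped eight-base words pooled with their reverse complements.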
row,Sequence,PBM E-score
1,AAGATGGC,-0.0955
2,ATGATCGA,0.12
3,ACGGATCC,0.141
4,CAATGTGC,0.131
5,GATATGCA,-0.0442
6,AGGGTACC,-0.241
7,GCGACATA,0.164
8,AAGGAGCG,0.102
9,GACGTTAC,0.18
10,GTCTGGAA,-0.122
11,CCATGCTA,-0.231
12,ATCTGTCG,0.185
13,ATCCCTTA,-0.0554
14,TCTTCAAA,-0.183
15,GCATAGTA,0.109
16,AAGACGTG,-0.182
17,AGATTGAT,-0.202
18,GCCGTCTA,-0.0991
19,CATGTTGA,-0.02
20,CTCAGTTC,-0.108
21,ATAATGAG,0.105
22,CACACCTG,-0.188

row,Sequence,PBM E-score
1,GCCTACCA,-0.22
2,AGGCACGG,-0.188
3,AAACTGAT,-0.0822
4,GTGCATGA,-0.0886
5,ACCATAGA,-0.18
6,CTCATCGC,-0.0145
7,CGTCGATC,-0.0198
8,CTAACAAA,-0.108
9,TACACACA,0.103
10,AACCAGTA,0.0766
11,AAGTCTTA,-0.133
12,GTAACAAC,0.0557
13,GCTAACAA,0.0294
14,GGCGTGCA,-0.286
15,ACCAGCAC,-0.212
16,CCAAGCCG,-0.242
17,GGCGATGA,-0.0714
18,AGAGCTCT,-0.248
19,AGCCCGAG,-0.137
20,CGGCCAGC,-0.175
21,TATGGCCA,-0.134
22,AGTCGACA,0.0616

row,Sequence,PBM E-score
1,CTTAACTC,-0.108
2,CCTCGAAA,0.037
3,AAGGAGTA,-0.26
4,CGACGTGC,0.179
5,ATCGTCTA,0.143
6,CGAACTTA,0.174
7,AATTGTCG,0.02
8,TAAGCGCA,0.0966
9,ACCAATGG,-0.303
10,CACCCACC,-0.208
11,CCCCAGAA,-0.186
12,AAGGTATA,0.149
13,ATCCGCGA,-0.079
14,GAGTGCCC,-0.0874
15,GGTTCACA,-0.177
16,TAAGTTGA,-0.111
17,CCCAGAGC,-0.306
18,GGCATACA,-0.00169
19,ACAGTCAC,-0.148
20,ACTTCCCT,-0.239
21,CAGGCGTA,0.131
22,CGACGCAC,0.182

row,Sequence,PBM E-score
1,GATGGACC,-0.0321
2,AGCCTATG,-0.26
3,GTTCTCAA,0.0703
4,ACTACAAG,-0.044
5,ACTTCGCG,0.166
6,CGTAGCAG,0.198
7,GGACTTCA,-0.256
8,ACTTGGCA,-0.0444
9,CAGCTCCG,0.0379
10,CTCTAACC,-0.18
11,AACTATAA,0.0921
12,TAAGCCTA,0.0514
13,CTTCTAAC,-0.197
14,GACATGAA,-0.117
15,CGCTTTCA,-0.0764
16,CGCGCACG,-0.00142
17,CTACAAGA,-0.194
18,CGTCTGTC,-0.111
19,AATACTCG,0.101
20,CGTTTTCC,0.165
